# Test results taken from the supplement of paper PMC4466236.
# Whole data set: some 33,000 sequences, median “E-score (dimensionless, -0.5 to 0.5)” near -0.058, cut for the highest 2% near 0.35. Some of the results follow.
# Test system: MvaT
# Assay: PBM 8-mer E-score (mean of HK and ME arrays) (E-score (dimensionless, -0.5 to 0.5)); higher = stronger relative binding preference; most listed sequences are background and not binding sites
# How it was run: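 Full-length P. aeruginosa MvaT, with glutathione S-transferase fused to its N-terminus (cloned into pTH6838 by isothermal assembly), was tested by protein binding microarray using a previously described protocol. Two universal double-stranded 60-mer arrays (ME and HK) were used, each with a constant 25-mer primer region and a variable 35-mer region covering all 8-mers. The rank-based 8-mer E-score (-0.5 to 0.5) is the mean of the two arrays, parsed with a custom Python script.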
row,Sequence,PBM 8-mer E-score
1,ATCCGTAC,0.067
2,ACATGCAA,0.136
3,GACAATCA,-0.0576
4,CTTAAACC,0.214
5,GGACCACC,-0.282
6,GGCCCACA,-0.145
7,CACGTGGC,-0.0383
8,CCTGTTTA,0.0399
9,CGAGTAAG,-0.0397
10,CTGTTCTA,0.0426
11,ACGCATAG,-0.152
12,CTCGGAAC,-0.0872
13,ATCGTGTA,0.124
14,TGTAGACA,-0.0847
15,CATGATAA,0.217
16,CGGCTCAG,-0.327
17,CAGTCGCA,-0.0418
18,ACGCATCT,-0.113
19,GCATGTCC,-0.142
20,ACCGAATC,-0.0498
21,CTGCCACC,-0.166
22,ACAAGCGC,-0.107
23,ATTAGACA,0.162
24,ACGGAGAT,0.0295
25,AGCCGATG,-0.193

row,Sequence,PBM 8-mer E-score
1,AAATTAAC,0.27
2,AGGTACTG,-0.174
3,GGGACCAC,-0.237
4,TTTCGAAA,0.256
5,ATATTGAT,0.32
6,AATCCCAA,0.136
7,ATCAAACA,0.113
8,CCTCGTTC,-0.185
9,TATTACGA,0.343
10,ACTGGCAT,0.041
11,CAATTATG,0.329
12,ACGCATAT,0.154
13,CACACCTA,0.0249
14,CGGGGCCA,-0.2
15,GATTAATC,0.317
16,CTATTGAG,-0.189
17,AGCGTTCC,-0.129
18,CATCCTCG,-0.327
19,ATATGCAA,0.271
20,ATATTATG,0.411
21,GTCGCTAA,-0.0359
22,ACTTAATG,0.287
23,CTGGTCCC,-0.274
24,CCAACGAG,-0.17
25,AACTATTA,0.399

row,Sequence,PBM 8-mer E-score
1,AAGTGGTA,0.0484
2,ATTTTTGA,0.233
3,ACCGAGGG,-0.223
4,AGGGCTCG,-0.319
5,CCTCACCA,0.0682
6,AAGAAATG,-0.0324
7,AGCGCGGC,-0.159
8,CGGGTAAA,0.104
9,CCCGGGTC,-0.349
10,CGATTAAA,0.218
11,GATCTGAC,-0.0641
12,ATTTGGTA,0.144
13,CTACTCTA,-0.0151
14,AAGACTAT,0.138
15,AAGATTCA,0.116
16,GACACAGA,-0.0831
17,CAGCCTAA,-0.154
18,AAGGGACT,-0.176
19,CAACACGG,-0.147
20,CTTCGCGC,-0.124
21,CTCCTCGA,-0.177
22,ACGGACAC,-0.107
23,CCGCTCAG,-0.246
24,CCATCGAG,-0.252
25,CCAACTAC,0.0254

row,Sequence,PBM 8-mer E-score
1,AGCCATAT,0.114
2,ATCGTGCA,0.0478
3,ATCGAGAC,-0.108
4,CCAAGGAG,-0.212
5,CGTGTGAA,-0.0347
6,GCGATCTA,-0.117
7,CAGGTTCA,-0.0132
8,CTGGACTA,-0.0316
9,GATCCAGA,-0.116
10,CAGCGATA,0.0749
11,AGATAATC,0.136
12,ACGTACTC,-0.0465
13,CCCTATAA,0.184
14,TCCATAAA,0.0562
15,CGATCCTC,-0.182
16,CTCTGGTC,-0.191
17,AAGGCAGA,-0.266
18,GTCTCCAC,-0.12
19,AATGGTTA,0.177
20,CCACGCCG,-0.142
21,CTGTGGTA,-0.0119
22,AACCTTAC,-0.0526
23,GCCAGAAA,-0.0692
24,TACAACAA,0.323
25,CGCTGAGA,-0.304

row,Sequence,PBM 8-mer E-score
1,TGCGTACA,-0.123
2,ACTGTCCG,-0.0845
3,ATATAACA,0.423
4,CTATGAAA,0.137
5,ACACTTCT,0.142
6,AGGGCGGC,-0.378
7,ATTGATAG,0.229
8,CCATATAC,0.153
9,CAGCAGTC,-0.255
10,GACACCTA,-0.0802
11,GTCTGTTA,0.123
12,AATCTACC,0.0249
13,GTTCATAA,0.0825
14,CTTAAGCC,-0.211
15,ACTTCACA,0.112
16,CCCAACGC,-0.122
17,CAACATAC,0.218
18,GAGTGCGA,-0.101
19,ACGGCCCG,-0.272
20,AATTGTAC,0.273
21,ACAAGAAT,0.191
22,CAGAGCAG,-0.224
23,AGTATACA,0.321
24,ACTGTTTG,0.147
25,GACTTAAA,0.185

row,Sequence,PBM 8-mer E-score
1,ACTCTCTC,-0.0923
2,ATGCGTTG,0.00246
3,GGTTTAAC,0.094
4,GCATCCAC,-0.319
5,CTGGGAAC,-0.213
6,ACTTTGGA,0.108
7,ATGTTAGG,0.147
8,AGAAGTCT,0.167
9,GAGATTCC,-0.0701
10,AATCTTCC,0.0814
11,ACACAAGA,-0.0159
12,CACAAACA,0.188
13,CTACATTA,0.241
14,AGAACACC,-0.1
15,CCATTAGA,-0.0603
16,ATCTAATG,0.137
17,GAGTCCCA,-0.24
18,ATTACGAC,0.262
19,CCCGTTCC,-0.249
20,AAACTTAA,0.326
21,AGTTAGGG,0.0688
22,ATAACAGA,0.176
23,ACCGACTG,-0.111
24,AACAAAAC,0.117
25,TACCGGCA,-0.0101

row,Sequence,PBM 8-mer E-score
1,AGGGTTGA,-0.0631
2,AAATCCTT,0.0321
3,CACCGGTC,-0.189
4,CAGTAGGA,-0.0744
5,AGCGCTAG,-0.176
6,CTACCTCA,-0.0976
7,CATGTCCG,-0.145
8,ACGCAAGG,-0.174
9,AGACCGGG,-0.322
10,CCCGGGCA,-0.223
11,CTCGAATC,-0.0425
12,CACACGCG,-0.284
13,CCGGACGA,-0.219
14,CCTTCAGA,-0.319
15,CATACCCA,0.0734
16,AGGGGACG,-0.285
17,AAGCCCTT,-0.246
18,CTGGTTCA,-0.165
19,CATTTATA,0.347
20,CGACACTA,0.107
21,AGAACAAC,0.163
22,GCCGTGGA,-0.211
